Laboratory results published in patent US20260217837A1, “FGFR3 BINDING MOLECULES AND METHODS OF USE THEREOF” (Regeneron Pharmaceuticals, Inc., priority 2023, published 2026).

Key:
[1] = tested on: BaF3 cells expressing FGFR3 S249C; test: BaF3 cell proliferation, FGFR3 S249C; type: cell-based; conditions: 72 hours, hFGF1 and heparin
Text: (§1) cDNA expressing FGFR3 mutants (S249C, S248C, Y375C, V555M, V555L, S249C+V555M, or S249C+V555L) were synthesized and cloned into pLVX Lenti-viral vector (Thermo Fisher). Viral particles were generated by lipofectamine transfection of LentiX 293T cells using Lenti-X packaging single shots following manufacturer's protocol (Clontech/Takara) and concentrated using Lenti-X concentrator and titer determined using Lenti-X p24 rapid titer kit (Clontech/Takara). BaF3 cells were transduced with virus at ~0.3 MOI. Expression of FGFR3 receptors was confirmed by FACS analysis and western blot.
(§2) For cell proliferation assays, engineered BaF3/hFGFR3 cells grown in complete medium were washed and plated in IL-3-free culture media±5 μg/ml heparin and 1 nM human FGF1. Cells were plated out at 1×10^5 cells/well into 96-well plates, followed by the addition of 1:3 serially diluted antibodies as indicated in figures. After addition of antibodies, cells were incubated at 37° C. for 72 h followed by the addition of CellTiter-Glo™ (Promega) reagent. The luminescent signal was detected by Envision plate reader (PerkinElmer). Data was analyzed using Prism software (GraphPad).
Heparin has been implicated in disulfide formation between FGFR3 S249C monomers. […] The levels of phospho-MAPK (pMAPK) and total MAPK were determined by western blot as described in Section 8.1.5.

[2] = tested on: BaF3 cells expressing the double mutant FGFR3 S249C+V557L; test: BaF3 cell viability, FGFR3 S249C+V557L; type: cell-based; conditions: 72 hours, FGF1/heparin
Text: as §1, with “MOI.” for “MOI. Expression of FGFR3 receptors was confirmed by FACS analysis and western blot.”
as §2, with “(GraphPad). […]” for “(GraphPad).”

[3] = tested on: LU-0813 tumors (patient-derived lung squamous cell carcinoma, FGFR3 S249C); test: In vivo tumor growth inhibition, LU-0813 PDX model; parameters: species or system mice; conditions: mAb063 10 mg/kg, BiP063N2 13.3 mg/kg twice per week; compared with erdafitinib 25 mg/kg daily oral
Experimental: Next, the ability of BiP063N2 to inhibit the growth of a patient-derived lung squamous cell carcinoma model LU-0813 was assessed.

[4] = tested on: human FGFR3b (hFGFR3b); test: Biacore binding to human FGFR3b; conditions: 25 C
Experimental: (§3) Affinity and mechanism of action of binding of anti-FGFR3 antibodies to FGFR3 isoforms were determined by Biacore analysis. In brief, in-house generated monoclonal anti-human Fc antibody was immobilized on the surface of a CM-5 sensor chip. Different concentrations of FGFR3 antibodies were injected at 50 μL/min for 4 min and the assay was performed at 25° C. The mAb binding response was monitored and, for low affinity receptors, steady-state binding equilibrium was calculated. Kinetic association (ka) and dissociation (kd) rate constants were determined by processing and fitting the data to a 1:1 binding model using Scrubber 2.0 curve fitting software. Binding dissociation equilibrium constants (KD) and dissociative half-lives (t1/2) were calculated from the kinetic rate constants using the formula: KD (M)=kd/ka; and t1/2 (min)=(ln2/(60*kd). Some KD values were derived using the steady state equilibrium dissociation constant; When no KD values could be derived, it was marked as NB (no binding observed) or IC (inconclusive affinity determination due to low specific RU signal).

[5] = tested on: monkey FGFR3b; test: Biacore binding to monkey FGFR3b
Experimental: as §3

[6] = tested on: FGFR3; test: Ligand blocking activity of parental anti-FGFR3 antibodies (Table 1); type: binding; conditions: parental anti-FGFR3 antibody

B1: mAb063: parental anti-FGFR3 antibody of BiP063N2, inhibitory; anchor mAb (antibody)
heavy: QVQLQESGPGLVKPSETLSLTCTVSGDSINSYFWSWIRQLPGKELEWIGHIYSSGSTRYNPSLQSRVTISIDTSKNQFSLKLSSVTAADTAVYYCARGASAVDYWGQGTLVTVSSASTKGPSVFPLAPCSRSTSESTAALGCLVKDYFPEPVTVSWNSGALTSGVHTFPAVLQSSGLYSLSSVVTVPSSSLGTKTYTCNVDHKPSNTKVDKRV[human IgG4 Fc with S228P (EU numbers) cut from this listing]
light: EIVLTQSPGTLSLSPGERATLSCRTSQSISSGYLAWYQQKPGQAPRLLIYGASRRATGIPDRFSGSGSGTDFTLTISRLEPEDFVVYYCQQYGSSPYTFGQGTKLEIKRTVAAPSVFIFPPSDEQLKSGTASVVCLLNNFYPREAKVQWKVDNALQSGNSQESVTEQDSKDSTYSLSSTLTLSKADYEKHKVYACEVTHQGLSSPVTKSFNRGEC
B1 was tested, and the “proliferation of hFGF1/heparin treated BaF3 cells expressing FGFR3 S249C” value [1] was “able to inhibit the proliferation”, the “growth of BaF3 cells expressing FGFR3 S249C+V557L” value [2] was “robustly inhibited the growth” and the LU-0813 tumor growth [3] was “strongly inhibited tumor growth”. The “binding to human FGFR3b” value [4] was “shown to bind”, the “binding to monkey FGFR3b” value ([5]; Biacore, 25 C) was “shown to bind” and the Kd ([5]; mfFGFR3b mmh, unit inferred) was 2.02 nM. For the same molecule, the “Ligand Blocking Activity (second figure of the cell, percent)” value [6] was 95%.
